Results as given in PubChem BioAssay (NCI).
Values joined by “and” are separate entries in the source; they are usually repeats but may differ in a detail not shown here. Identical values can stand only once.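 In this assay, cells in 96-well plates receive the compound at five concentrations for 48 hours. Endpoints are linearly interpolated between the surrounding concentrations. GI50 = concentration required for 50% inhibition of growth. TGI is the concentration that stops growth completely.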

Test system: NCI-H322M lung
Assay: NCI tumour cell line growth inhibition, 48 h

Point of comparison: `COC1CCC(OC)C(c2nc3sccn3c2/C=N/N=C(N)N)C1` (centres undefined), GI50 8.23 µM. Against it:
- CN(C)CCN=c1nc2c(c(N)n1-c1ccccc1)c(=S)n(-c1ccccc1)c(=S)n2-c1ccccc1 — 1.8-fold lower, 4.55 µM
- CC(C)(C)OC(=O)NCCCCCCCCCCCCn1c2c(c3ccccc3c1=O)C(=O)c1ccccc1-2 — higher, > 100 µM
- COC(=O)c1c(C(=O)O)c(-c2ccccc2)c(-c2ccccc2)c(-c2ccccc2)c1-c1ccccc1 — higher, > 100 µM
- COc1ccc2c(c1)[n+](=O)c(/C=C/C(=O)c1cc(OC)c(OC)c(OC)c1)c(C)n2[O-] — 4.3-fold higher, 35.4 µM
- CCCCS(=O)(=O)c1cc(Nc2ccc(O)c3c2C(=O)c2ccccc2C3=O)ccc1C — 5.6-fold lower, 1.46 µM
- CCCC(=O)Nc1cc(/C=C/C(=O)N2C[C@@H]3C[C@]34C2=CC(=O)c2[nH]cc(C)c24)n(C)c1 — 29-fold lower, 0.281 µM
- COc1ccc(/C=C(\C#N)c2cc(OC)c(OC)c(OC)c2)cc1 — 8.2-fold higher, 67.6 µM
- CCCCC[C@H]1C/C=C2/C(=O)C=C[C@@H]2C/C=C\CCCC(=O)O1 — 15-fold lower, 0.564 µM
- CN(Cc1cnc2nc(N)nc(N)c2n1)c1c(Cl)cc(C(=O)NC(CCC(=O)O)C(=O)O)cc1Cl (centres undefined) — 260-fold lower, 0.0319 µM
- COc1ccc(C(=O)Cn2c(C(=O)c3ccc(Cl)cc3)nc(-c3ccccc3)c2-c2ccccc2)cc1 — higher, > 100 µM
- COC(=O)N[C@@H](C)CNc1nccc(-c2cn(C(C)C)nc2-c2cc(Cl)cc(NS(C)(=O)=O)c2F)n1 — higher, > 100 µM
- C=C(CN1CCN(c2ccccn2)CC1)c1ccc(C(=O)Nc2ccccc2N)cc1 — 2.6-fold lower, 3.12 µM
- Cc1cc(C)c(-c2c(O)c(Br)c(-c3c(C)cc(C)c(Br)c3C)c(O)c2Br)c(C)c1Br — 2.7-fold lower, 3.1 µM
- N#C/C(=C/C=C/c1cccc(Cl)c1)S(=O)c1ccccc1 (centres undefined) — 16-fold lower, 0.52 µM
- CSC(=S)NCc1cn(C)c2ccccc12 — 5.5-fold higher, 45.4 µM

Point of comparison: `BrCc1ccc2ccc3ccc(CBr)nc3c2n1`, TGI 22.2 µM. Against it:
- CN(C)CCN=c1nc2c(c(N)n1-c1ccccc1)c(=S)n(-c1ccccc1)c(=S)n2-c1ccccc1 — within 1.5-fold, 18.4 µM
- CC(C)(C)c1cc(C(C)(C)C)c(SC2OC(CO)C(O)C(O)C2O)c(O)c1O (centres undefined) — within 1.5-fold, 30.8 µM
- O=C(CCC(NC(=O)OCc1ccccc1)C(=O)OCc1ccccc1)Nc1cccc(OCc2ccccc2)c1 (centres undefined) — 3.6-fold higher, 79.9 µM
- CC(C)(C)OC(=O)NCCCCCCCCCCCCn1c2c(c3ccccc3c1=O)C(=O)c1ccccc1-2 — higher, > 100 µM
- COC(=O)c1c(C(=O)O)c(-c2ccccc2)c(-c2ccccc2)c(-c2ccccc2)c1-c1ccccc1 — higher, > 100 µM
- O=C1CC(c2cccc([N+](=O)[O-])c2)C2(C(=O)NC(=S)NC2=O)C(c2cccc([N+](=O)[O-])c2)C1 (centres undefined) — 1.9-fold higher, 42.3 µM
- COc1ccc(-c2nc(-c3cnccn3)n(C/C=C/c3ccccc3)n2)cc1 — higher, > 100 µM
- COc1ccc2c(c1)[n+](=O)c(/C=C/C(=O)c1cc(OC)c(OC)c(OC)c1)c(C)n2[O-] — higher, > 100 µM
- COC1(C)CCC(OS(C)(=O)=O)CO1 (centres undefined) — higher, > 100 µM
- CCOC(=O)C1=C(N2CCCC2)C(=O)C(C(=O)OCC)C1 (centres undefined) — higher, > 100 µM
- Cc1cc(NS(=O)(=O)c2ccc(Nc3c4ccccc4nc4c(C(=O)NC(CO)(CO)CO)cccc34)cc2)no1 — higher, > 100 µM
- COc1c(NC(C)=O)c2ccccc2c2ccccc12 — higher, > 100 µM
- CCCCS(=O)(=O)c1cc(Nc2ccc(O)c3c2C(=O)c2ccccc2C3=O)ccc1C — higher, > 100 µM
- C[C@]12CC[C@H]3[C@@H](CC=C4C[C@@H](O)CC[C@@]43C)[C@@H]1C/C(=C\c1ccc([N+](=O)[O-])cc1)[C@@H]2O — within 1.5-fold, 22.5 µM
- COC1CCC(OC)C(c2nc3sccn3c2/C=N/N=C(N)N)C1 (centres undefined) — 3.7-fold higher, 83.1 µM
- COc1ccc(/C=C(\C#N)c2cc(OC)c(OC)c(OC)c2)cc1 — higher, > 100 µM
- C=CC(C)(C)/C(=C\CO[Si](C(C)C)(C(C)C)C(C)C)C(=O)N(C)c1ccccc1I — 1.6-fold higher, 34.9 µM
- CC1=NN(c2ccccc2)C(=O)/C1=C\c1c(C)[nH]n(-c2ccccc2)c1=O — higher, > 100 µM
- C#CCn1c(I)cc2c(c1=O)COC(=O)[C@]2(O)CC — higher, > 100 µM
- CC(C)=CCNc1ncnc2c1ncn2CCC(=O)O — higher, > 100 µM
- Oc1c(NCn2nc(CCCCCCCCc3nn(CNc4ccc5ccccc5c4O)c(=S)o3)oc2=S)ccc2ccccc12 — higher, > 100 µM
- CC(C)C(Br)C(=O)NCC(=O)O (centres undefined) — higher, > 100 µM
- COc1ccc(N=C(C)C(C)=Nc2ccc(OC)cc2)cc1 — higher, > 100 µM
- CCCCC[C@H]1C/C=C2/C(=O)C=C[C@@H]2C/C=C\CCCC(=O)O1 — 4.7-fold lower, 4.77 µM
- C/C(N=NS(=O)(=O)c1c(C)cc(C)cc1C)=C1\C=CC=CN1O — higher, > 100 µM
- COC1CCC(CO)OO1 (centres undefined) — higher, > 100 µM
- COc1ccc(NCn2nc(CCCCCCCCc3nn(CNc4ccc(OC)cc4)c(=S)o3)oc2=S)cc1 — higher, > 100 µM
- N#Cc1nc(CN2C(=O)c3ccccc3C2=O)oc1N — higher, > 100 µM
- CCC1OC2(C)CC(C#N)(C#N)C1(C#N)C(=N)O2 (centres undefined) — higher, > 100 µM
- O=c1[nH]c(=S)[nH]c2c1CCCN2 — higher, > 100 µM
- C[C@@H]([C@H]1CC[C@@]2(C)[C@@H]3CC[C@@H]4C(=CC3=CC[C@]12C)CC[C@H](N(C)C)C4(C)C)N(C)C — higher, > 100 µM
- CN(Cc1cnc2nc(N)nc(N)c2n1)c1c(Cl)cc(C(=O)NC(CCC(=O)O)C(=O)O)cc1Cl (centres undefined) — higher, > 100 µM
- CC(=O)OC1C2CCC3CC2C2(SCCS2)C31 (centres undefined) — higher, > 100 µM
- C(=Nc1ccc(-c2nc3ccccc3s2)cc1)c1cccs1 — higher, > 100 µM
- COc1ccc(C(=O)Cn2c(C(=O)c3ccc(Cl)cc3)nc(-c3ccccc3)c2-c2ccccc2)cc1 — higher, > 100 µM
- Cc1c2cc[n+](C)cc2c(C)c2c1[nH]c1ccc(OCC(F)(F)F)cc12 — higher, > 100 µM
- O=C(Oc1cncc(Cl)c1)c1cc2ccccc2sc1=O — higher, > 100 µM
- COC(OC)c1cccnc1C — higher, > 100 µM
- C#CC(O)/C=C/C(O)CCCC(O)CC#CC(O)C#CCCCCC(O)/C=C/CCCC(=O)CCCCCCCCCCCCCCCC(O)C(O)C#CC(=O)O (centres undefined) — higher, > 25 µM
- O=C1N=C2N=C(c3ccc(Cl)cc3)N(c3ccc(Cl)cc3)N2Sc2ccccc21 — higher, > 100 µM
- O=C(O)C12C=CC(C1)c1ccccc12 (centres undefined) — higher, > 100 µM
- Nc1ccnc2c1ncn2[C@H]1C[C@H](O)[C@@H](CO)O1 — higher, > 100 µM
- Cc1noc(-c2ccc(C(=O)O)[nH]2)c1Br — higher, > 100 µM
- COC(=O)N[C@@H](C)CNc1nccc(-c2cn(C(C)C)nc2-c2cc(Cl)cc(NS(C)(=O)=O)c2F)n1 — higher, > 100 µM
- O=C(C#Cc1ccccc1)NC/C=C/c1ccccc1 — higher, > 100 µM
- c1ccc(N2CCN(CCN3CCc4c([nH]c5ccccc45)C3c3cccnc3)CC2)cc1 (centres undefined) — higher, > 100 µM
- c1ccc(C2N=C(c3ccccn3)C(c3ccccn3)=NC2c2ccccc2)cc1 (centres undefined) — higher, > 100 µM
- Oc1ccc(Nc2nc(Cl)c3[nH]cnc3n2)cc1 — higher, > 100 µM
- CCOC(=O)NN1C(=O)C(=P(c2ccccc2)(c2ccccc2)c2ccccc2)C(C(=O)OC)=C1C — higher, > 100 µM
- C=C(CN1CCN(c2ccccn2)CC1)c1ccc(C(=O)Nc2ccccc2N)cc1 — within 1.5-fold, 17.1 µM
- O=C(CC1(O)CCCCC1)OC1CCCC1 — higher, > 100 µM
- COc1ccc(Cn2c(=O)c(OS(=O)(=O)C(F)(F)F)c(C)c3cc4ccccc4cc32)cc1 — higher, > 100 µM
- CCOC1=C/C(=N\Nc2ccc([N+](=O)[O-])cc2)CCC1 — higher, > 100 µM
- O=C(NC1=C(Cl)C(=O)c2ccccc2C1=O)C(=O)c1c(O)c2ccccc2oc1=O — within 1.5-fold, 20.5 µM
- Cc1cc(C)c(-c2c(O)c(Br)c(-c3c(C)cc(C)c(Br)c3C)c(O)c2Br)c(C)c1Br — within 1.5-fold, 21.4 µM
- N#C/C(=C/C=C/c1cccc(Cl)c1)S(=O)c1ccccc1 (centres undefined) — 11-fold lower, 2.01 µM
- NC(=S)c1cccc(C2Nc3ccccc3O2)c1 (centres undefined) — higher, > 100 µM
- CCSc1c2ccccc2nc2c(OC)ccc(OC)c12 — 3.1-fold higher, 69 µM
- CC1(C)Cc2ccccc2C(C)(Cl)C(=O)N1 (centres undefined) — not separable, > 10 µM
- C/C(=N/NC(N)=S)C(CN1CCOCC1)C(C1=C(O)c2ccccc2OC1)c1ccccc1 (centres undefined) — higher, > 100 µM
- CN1C2C=CC(=O)C1C(C#N)C2 (centres undefined) — higher, > 100 µM
- CC12CC(c3ccccc3O1)C(C(=O)Nc1nccs1)C(=O)N2 (centres undefined) — higher, > 100 µM
- O=C(NCCCN1CCN(CCCNC(=O)Nc2cc(Cl)ccc2Cl)CC1)Nc1cc(Cl)ccc1Cl — higher, > 100 µM
- CSC(=S)NCc1cn(C)c2ccccc12 — higher, > 100 µM
- COC(=O)[C@@H]1C=CCN1S(=O)(=O)c1ccc(C)cc1 — higher, > 100 µM
- COC(=O)CCCc1nc2ccccc2nc1N=Nc1ccccc1 — higher, > 100 µM
- C[C@@H]1CC2(C[C@@H](C)C3[C@@H](CC4(C)CCCC5C6=CC(O)(CC[C@]34C)OC6=CC(=O)OC5(C)C)O2)OC1=O (some centres undefined) — higher, > 100 µM
- C/C(=C\c1ccccc1)C(=O)c1c(C)cc(C)cc1C — higher, > 100 µM
- C[C@H](NC(=O)C(C)(Cc1ccc(O)cn1)NC(=O)c1ccccc1)c1ccccc1 (some centres undefined) — higher, > 100 µM
- O=C(O)c1c(CC(Cc2ccccc2)C(=O)O)ccc2c1CCC2 (centres undefined) — higher, > 100 µM
- O=C1C(=O)N(c2cc(Cl)ccc2Cl)C(=O)C(=O)C1c1nc2ccccc2s1 — higher, > 100 µM

With `CCN(CC)CC[n+]1ccc2c(C)c3[nH]c4ccccc4c3c(C)c2c1` the TGI was 3.15 µM and 5.54 µM and 5.44 µM.
